No constants are given. Whether binding was seen depends on the method and setting. Binding seen in cells or lysates may run through a third protein. Some results given as binding are weak or reduced against the parent protein; the word gives no strength. Where a sequence is shown, tags or fusion partners need not be part of it.
T1: GPA1-YFP^N (Gα subunit of heterotrimeric protein) (UniProt P18064)
T1 sequence: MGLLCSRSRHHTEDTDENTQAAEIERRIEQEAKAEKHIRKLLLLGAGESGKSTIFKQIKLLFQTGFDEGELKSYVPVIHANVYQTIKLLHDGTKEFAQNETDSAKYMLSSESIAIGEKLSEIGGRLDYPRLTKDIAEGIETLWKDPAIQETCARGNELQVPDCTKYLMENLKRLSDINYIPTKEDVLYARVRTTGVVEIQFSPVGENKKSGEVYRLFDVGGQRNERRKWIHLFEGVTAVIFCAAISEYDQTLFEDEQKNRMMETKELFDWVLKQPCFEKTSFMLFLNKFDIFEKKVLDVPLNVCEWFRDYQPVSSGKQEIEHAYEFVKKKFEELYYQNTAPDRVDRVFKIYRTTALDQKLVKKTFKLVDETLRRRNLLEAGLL

Amino acid sequences for entries named in this document (tags omitted).
UniProt P25858: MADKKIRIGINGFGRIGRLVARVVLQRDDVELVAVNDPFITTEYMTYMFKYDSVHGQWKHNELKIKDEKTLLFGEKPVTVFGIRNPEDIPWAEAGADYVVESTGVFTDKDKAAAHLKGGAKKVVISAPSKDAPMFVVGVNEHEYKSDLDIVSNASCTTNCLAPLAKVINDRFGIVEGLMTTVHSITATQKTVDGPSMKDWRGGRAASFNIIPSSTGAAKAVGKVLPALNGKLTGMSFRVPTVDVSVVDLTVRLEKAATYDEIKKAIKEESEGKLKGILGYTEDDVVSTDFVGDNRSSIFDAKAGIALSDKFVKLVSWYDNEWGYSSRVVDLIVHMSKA
UniProt Q9FX54: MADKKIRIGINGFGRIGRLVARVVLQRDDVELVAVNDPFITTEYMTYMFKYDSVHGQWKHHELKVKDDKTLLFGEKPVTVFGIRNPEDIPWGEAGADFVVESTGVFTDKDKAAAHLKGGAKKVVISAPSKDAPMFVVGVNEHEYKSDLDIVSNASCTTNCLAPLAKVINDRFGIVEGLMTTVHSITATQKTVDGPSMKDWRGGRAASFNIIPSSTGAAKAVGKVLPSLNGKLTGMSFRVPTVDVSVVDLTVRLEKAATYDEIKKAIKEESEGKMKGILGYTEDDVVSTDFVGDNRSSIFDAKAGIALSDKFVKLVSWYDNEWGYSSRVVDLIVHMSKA

T2: PLDα1-YFP^C (phospholipase Dα1) (UniProt Q38882)
T2 sequence: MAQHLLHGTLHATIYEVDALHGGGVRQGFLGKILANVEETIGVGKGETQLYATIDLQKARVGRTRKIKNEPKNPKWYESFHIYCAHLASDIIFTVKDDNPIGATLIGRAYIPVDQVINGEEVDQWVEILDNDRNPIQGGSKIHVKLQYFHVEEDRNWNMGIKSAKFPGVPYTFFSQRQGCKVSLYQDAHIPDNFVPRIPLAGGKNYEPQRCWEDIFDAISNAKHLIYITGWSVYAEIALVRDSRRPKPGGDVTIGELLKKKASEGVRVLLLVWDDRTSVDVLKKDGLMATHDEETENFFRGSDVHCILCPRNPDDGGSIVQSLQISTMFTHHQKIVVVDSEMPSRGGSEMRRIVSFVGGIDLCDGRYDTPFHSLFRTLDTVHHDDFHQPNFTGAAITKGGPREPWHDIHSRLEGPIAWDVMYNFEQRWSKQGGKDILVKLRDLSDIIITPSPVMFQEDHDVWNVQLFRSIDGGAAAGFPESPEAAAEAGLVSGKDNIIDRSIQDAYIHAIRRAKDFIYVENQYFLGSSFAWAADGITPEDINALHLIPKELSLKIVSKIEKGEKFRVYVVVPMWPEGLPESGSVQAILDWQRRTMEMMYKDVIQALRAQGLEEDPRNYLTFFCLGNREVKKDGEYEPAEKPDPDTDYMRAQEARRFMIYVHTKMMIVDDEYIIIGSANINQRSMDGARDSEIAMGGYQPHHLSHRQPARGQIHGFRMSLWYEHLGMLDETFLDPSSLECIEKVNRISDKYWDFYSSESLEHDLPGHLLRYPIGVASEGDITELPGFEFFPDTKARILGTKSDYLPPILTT


Columns and labels:
Experiment in all cases: split reporter; BiFC with YFP^N and YFP^C fusions co-expressed transiently in Nicotiana benthamiana leaves; confocal microscopy
[1] = target: GAPC1-YFP^N (Arabidopsis) (UniProt P25858)
[2] = target: GAPC2-YFP^N (Arabidopsis) (UniProt Q9FX54)
[3] = target: T1, GPA1-YFP^N (Gα subunit of heterotrimeric protein)
[4] = target: T2, PLDα1-YFP^C (phospholipase Dα1)

Row | binding [1] | binding [2] | binding [3] | binding [4] | Binder
1 | binds | binds | no binding |  | NF-YC10-YFP^C (protein, UniProt Q58CM8 1-195) MRRPKSSHVRMEPVAPRSHNTMPMLDQFRSNHPETSKIEGVSSLDTALKVFWNNQREQLGNFAGQTHLPLSRVRKILKSDPEVKKISCDVPALFSKACEYFILEVTLRAWMHTQSCTRETIRRCDIFQAVKNSGTYDFLIDRVPFGPHCVTHQGVQPPAEMILPDMNVPIDMDQIEEENMMEERSVGFDLNCDLQ
2 |  |  |  | binds | GPA1-YFP^N (Gα subunit of heterotrimeric protein) (protein, UniProt P18064 1-383) MGLLCSRSRHHTEDTDENTQAAEIERRIEQEAKAEKHIRKLLLLGAGESGKSTIFKQIKLLFQTGFDEGELKSYVPVIHANVYQTIKLLHDGTKEFAQNETDSAKYMLSSESIAIGEKLSEIGGRLDYPRLTKDIAEGIETLWKDPAIQETCARGNELQVPDCTKYLMENLKRLSDINYIPTKEDVLYARVRTTGVVEIQFSPVGENKKSGEVYRLFDVGGQRNERRKWIHLFEGVTAVIFCAAISEYDQTLFEDEQKNRMMETKELFDWVLKQPCFEKTSFMLFLNKFDIFEKKVLDVPLNVCEWFRDYQPVSSGKQEIEHAYEFVKKKFEELYYQNTAPDRVDRVFKIYRTTALDQKLVKKTFKLVDETLRRRNLLEAGLL
3 | no binding | no binding |  |  | PLDα1-YFP^C (phospholipase Dα1) (enzyme, UniProt Q38882 1-810) MAQHLLHGTLHATIYEVDALHGGGVRQGFLGKILANVEETIGVGKGETQLYATIDLQKARVGRTRKIKNEPKNPKWYESFHIYCAHLASDIIFTVKDDNPIGATLIGRAYIPVDQVINGEEVDQWVEILDNDRNPIQGGSKIHVKLQYFHVEEDRNWNMGIKSAKFPGVPYTFFSQRQGCKVSLYQDAHIPDNFVPRIPLAGGKNYEPQRCWEDIFDAISNAKHLIYITGWSVYAEIALVRDSRRPKPGGDVTIGELLKKKASEGVRVLLLVWDDRTSVDVLKKDGLMATHDEETENFFRGSDVHCILCPRNPDDGGSIVQSLQISTMFTHHQKIVVVDSEMPSRGGSEMRRIVSFVGGIDLCDGRYDTPFHSLFRTLDTVHHDDFHQPNFTGAAITKGGPREPWHDIHSRLEGPIAWDVMYNFEQRWSKQGGKDILVKLRDLSDIIITPSPVMFQEDHDVWNVQLFRSIDGGAAAGFPESPEAAAEAGLVSGKDNIIDRSIQDAYIHAIRRAKDFIYVENQYFLGSSFAWAADGITPEDINALHLIPKELSLKIVSKIEKGEKFRVYVVVPMWPEGLPESGSVQAILDWQRRTMEMMYKDVIQALRAQGLEEDPRNYLTFFCLGNREVKKDGEYEPAEKPDPDTDYMRAQEARRFMIYVHTKMMIVDDEYIIIGSANINQRSMDGARDSEIAMGGYQPHHLSHRQPARGQIHGFRMSLWYEHLGMLDETFLDPSSLECIEKVNRISDKYWDFYSSESLEHDLPGHLLRYPIGVASEGDITELPGFEFFPDTKARILGTKSDYLPPILTT
